Test results published in the supplement of paper PMC4166925.
± gives the standard deviation of the averaged measurements. In all, about 33,000 sequences were measured (“E-score (dimensionless, -0.5 to 0.5)”: median about -0.049, highest 2% from about 0.37 on). Some of the results follow.

Tested on: T1, PmTbr T-box DNA-binding domain (GST fusion)
T1 sequence: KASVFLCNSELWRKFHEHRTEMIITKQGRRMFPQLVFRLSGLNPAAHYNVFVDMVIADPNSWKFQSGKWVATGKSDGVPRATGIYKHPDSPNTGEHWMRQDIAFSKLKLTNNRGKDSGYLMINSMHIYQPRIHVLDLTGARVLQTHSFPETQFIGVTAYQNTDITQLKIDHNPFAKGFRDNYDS
Assay: PBM E-score of 8-mer (E-score (dimensionless, -0.5 to 0.5)); Tbr is Tbrain of the sea star Patiria miniata (Pm) or the sea urchin Strongylocentrotus purpuratus (Sp); higher = stronger binding preference; most listed sequences are background and not binding sites
Settings: the construct has about 5 more residues each side
Procedure: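 Universal protein-binding microarray (Agilent AMADID 016060, 60-bp probes with a 35-bp variable region) incubated with 200 nM GST-fused Patiria miniata Tbr T-box DNA-binding domain (residues 272-466) in PBS pH 7.5. Scored for every ungapped 8-mer (given with its reverse complement) by the Universal PBM Analysis Suite as E-score (modified Wilcoxon-Mann-Whitney enrichment, range -0.5 to 0.5; >0.45 counts as bound) and Z-score of median probe intensity. Two replicate arrays (datasets 1 and 2).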
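Also: 200 nM protein in PBS on universal arrays averaged over duplicate arrays.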

Sequence	PBM E-score of 8-mer
ACGGCTGC	-0.00453 ± 0.0036
CCATCGAA	-0.233 ± 0.058
CACCAGTG	0.184 ± 0.025
CAGACTAG	-0.187 ± 0.057
CGCTGGAC	0.0209 ± 0.021
AGTTTCAC	0.244 ± 0.029
CAGTTCCC	0.136 ± 0.025
ATAATCGA	-0.0123 ± 0.056
CAGTTGGG	-0.077 ± 0.084
AGAGTGGG	-0.217 ± 0.065
ACTTCCGC	0.0444 ± 0.012
ACCGTCGC	0.136 ± 0.047
ACGCATAC	-0.0469 ± 0.017
ACATGACT	-0.132 ± 0.036
CGCAGTCA	-0.0066 ± 0.0064
ACCTGTGG	0.251 ± 0.0093
CTATTGCA	-0.0832 ± 0.0029
AGAACCCT	-0.229 ± 0.014
CAAATAGA	-0.176 ± 0.041
CTCCTAGA	-0.252 ± 0.036
GTACAAGA	-0.298 ± 0.015
AGCTGTTA	0.298 ± 0.06
AAGCTGTA	-0.0497 ± 0.05
ATTGAGCA	-0.338 ± 0.029
ACCCTCGA	0.00773 ± 0.041

Sequence	PBM E-score of 8-mer
AAAATGAC	0.0503 ± 0.053
ACATTAAT	-0.202 ± 0.093
CTTCAATC	0.0436 ± 0.043
CGGAGGGC	-0.0305 ± 0.062
GATTGTCA	0.298 ± 0.0064
ATAACCCA	-0.111 ± 0.091
AACCTAGC	0.088 ± 0.041
CCGTTGGA	-0.0575 ± 0.014
AGAGAGAG	0.0664 ± 0.0028
CAATTCCC	-0.188 ± 0.036
CATTGCAC	0.0799 ± 0.057
TGCGTCAA	0.0593 ± 0.038
TCCGACGA	0.035 ± 0.094
AGCTTTCC	0.00209 ± 0.0034
AGAGCCGA	-0.00126 ± 0.022
ATCCGAAC	-0.238 ± 0.035
AGGTGAGA	0.486 ± 0.0024
GGCTATTA	-0.0688 ± 0.068
CTAGTACA	0.161 ± 0.061
CTCTGTGA	0.0449 ± 0.011
CGTACCAA	-0.0579 ± 0.0058
ACGTGATG	0.137 ± 0.028
ACCACGAA	-0.0538 ± 0.031
GTGGACGA	-0.178 ± 0.0023
AAACAGCG	0.0319 ± 0.027

Sequence	PBM E-score of 8-mer
ATGGCAGC	0.161 ± 0.028
AGGAAAAC	-0.112 ± 0.11
CTCACTGC	0.0572 ± 0.031
TTTAAAAA	-0.305 ± 0.035
GACTATTA	-0.212 ± 0.038
AGGGAATC	-0.209 ± 0.018
ATAACGAT	-0.0119 ± 0.062
CATGTAGG	-0.0204 ± 0.034
ATGGATAA	-0.205 ± 0.1
AGCCGTCG	-0.0661 ± 0.062
AGGGAAGA	-0.29 ± 0.023
ACTGCGCG	-0.189 ± 0.011
AAATACTG	-0.245 ± 0.042
CACGGAGG	0.077 ± 0.042
CAAGTATA	-0.00921 ± 0.041
CATACGGG	-0.213 ± 0.073
AGTAATGC	-0.147 ± 0.047
AACCGAGA	0.00939 ± 0.047
ATTCGTAG	-0.167 ± 0.023
CACGCGGG	0.147 ± 0.069
CGAGGCTC	-0.199 ± 0.09
CTAGCGGA	-0.0128 ± 0.05
GTAAACCA	0.0429 ± 0.038
CTCCCCAC	0.00426 ± 0.045
TCGACAAA	0.265 ± 0.056

Sequence	PBM E-score of 8-mer
GCTAGCCC	-0.089 ± 0.091
ATTTTCAG	-0.197 ± 0.067
GGTAAGAA	-0.0571 ± 0.028
ATCCTCTA	-0.268 ± 0.035
ATGGCTAG	-0.125 ± 0.048
AACGTCGG	-0.094 ± 0.11
ATAGCTTA	-0.178 ± 0.047
CATGATGC	-0.0752 ± 0.034
AGGAGACC	-0.201 ± 0.0021
CGTGTGCC	0.0527 ± 0.013
GCAGCCCC	-0.153 ± 0.11
ATGGCGCG	0.174 ± 0.0047
CCGTGCGC	-0.0174 ± 0.045
GGATATTA	-0.324 ± 0.004
ACCTTACG	0.0769 ± 0.052
AGATGCAT	-0.0558 ± 0.0014
CAACTCAG	0.0305 ± 0.0082
CACCCAAA	0.0441 ± 0.04
ACCAATAA	-0.11 ± 0.051
CTGCGTAA	-0.156 ± 0.097
CTTTTGCA	0.0816 ± 0.017
CCATAGGA	-0.0411 ± 0.059
TCCAGGAA	-0.132 ± 0.0051
AAATTCAG	-0.041 ± 0.0023
ATCCAGAG	-0.197 ± 0.0054

Sequence	PBM E-score of 8-mer
GTGCAAAA	0.292 ± 0.04
AGTCAGCG	-0.0505 ± 0.06
GAACCACC	-0.0223 ± 0.019
CTTGACGC	0.27 ± 0.0032
TCCCCTAA	-0.114 ± 0.027
TCGCAAGA	0.16 ± 0.052
ACTGCTGC	-0.0992 ± 0.02
GTCGGAGA	-0.0752 ± 0.028
ACTTGCGG	-0.0023 ± 0.035
ACCAGCTG	-0.0194 ± 0.046
TACGTACA	-0.0771 ± 0.031
AAGTCAGG	-0.238 ± 0.099
GGCCCCAA	0.135 ± 0.025
CGCTAGGC	0.0909 ± 0.074
CATATCAA	-0.0653 ± 0.053
AAGATAGA	-0.295 ± 0.018
CAGGTATA	-0.0703 ± 0.081
AGCCGAAT	-0.306 ± 0.019
AACGCTGG	0.0657 ± 0.046
ACGTATTC	-0.0822 ± 0.024
CCTTATCG	0.129 ± 0.06
GCTTCGCC	-0.155 ± 0.1
AGGTACGC	-0.135 ± 0.045
AAAGTCCG	-0.00454 ± 0.029
AGACTGAA	-0.126 ± 0.028

Sequence	PBM E-score of 8-mer
ACCTCCAT	0.14 ± 0.014
CCCGTTCG	0.00454 ± 0.0041
AACTTGGT	0.00681 ± 0.077
ATTCAGAG	-0.13 ± 0.0013
CACGAGAC	-0.0797 ± 0.018
CCGAACTA	-0.2 ± 0.11
GTCGGTCA	-0.033 ± 0.025
AAACGGTT	-0.0183 ± 0.0019
CGGGTCAC	0.113 ± 0.024
ACGCCTAG	0.292 ± 0.011
AGAATCGA	-0.0268 ± 0.011
CGTATCAG	0.0697 ± 0.037
CTTTTAAC	0.0881 ± 0.12
GTGCGTCA	0.11 ± 0.023
CAACTAGC	0.064 ± 0.0028
GTGCCGTA	-0.0314 ± 0.012
GGTACGCA	-0.154 ± 0.074
CGGACAGA	-0.178 ± 0.065
CCCGGACA	0.0682 ± 0.084
ACACGCGA	0.2396 ± 0.0015
ATCCAGCC	-0.0409 ± 0.03
CTTATGTA	-0.156 ± 0.026
TAACGTAA	-0.228 ± 0.093
TAGATTCA	-0.0302 ± 0.012
CCCTGCCG	0.0201 ± 0.13

Sequence	PBM E-score of 8-mer
GAGGAGGA	-0.0974 ± 0.01
AATTATTG	-0.227 ± 0.061
ACCGGTAA	-0.0335 ± 0.019
GTGTCGTA	0.327 ± 0.018
ACCGTTAG	0.1015 ± 0.00013
AGCCAATG	-0.214 ± 0.11
AATATGAC	0.0569 ± 0.057
CCTATTAA	-0.157 ± 0.027
CAGATAAC	0.115 ± 0.039
CTCTCAGA	-0.132 ± 0.047
ACTCGTGG	-0.116 ± 0.019
CCCGCATA	-0.191 ± 0.079
GCCGTACA	-0.108 ± 0.013
AGAGAGGA	-0.145 ± 0.033
ATTTCTGC	-0.142 ± 0.0022
CTTAAGCA	-0.0559 ± 0.013
CCACGGGG	0.125 ± 0.055
CCGCCAAC	0.155 ± 0.014
GTGAGAAA	0.458 ± 0.012
AAAGAGTT	0.0877 ± 0.014
AAACAACC	-0.0664 ± 0.015
GTTAGAAA	0.109 ± 0.022
CCCTTTCG	-0.0314 ± 0.0052
AACTTCAC	0.0623 ± 0.061
AGGCTAGC	-0.0407 ± 0.028

Sequence	PBM E-score of 8-mer
AGTTCTAG	-0.0278 ± 0.041
ATGTAACG	-0.0238 ± 0.026
CAGCCAAG	-0.0783 ± 0.084
AACTGGGG	-0.216 ± 0.052
ATACTACC	-0.127 ± 0.11
AAAGACAC	0.159 ± 0.036
CGTCAGCC	-0.117 ± 0.095
CGAACAAC	0.16 ± 0.031
ATAATACA	-0.0598 ± 0.013
ATAGTCCG	-0.131 ± 0.0027
GATGGGCC	-0.16 ± 0.047
GATGAACC	-0.238 ± 0.028
TAAGAGAA	-0.235 ± 0.051
TGAACACA	0.118 ± 0.027
GATGGCTA	-0.169 ± 0.032
AGTCATAG	0.0344 ± 0.022
ATAGGTAC	-0.105 ± 0.041
CTTTCGAA	0.0767 ± 0.037
AGACCATG	-0.132 ± 0.0097
ACCTAGGG	0.169 ± 0.0037
CTCTACTC	-0.134 ± 0.051
AAACTAGA	-0.161 ± 0.057
GTTAGAGA	0.0437 ± 0.071
AATTCCCA	-0.13 ± 0.041
AGAACTTA	-0.0909 ± 0.074

Sequence	PBM E-score of 8-mer
CTGCTAAA	0.21 ± 0.071
CGTGGCGC	0.145 ± 0.023
GCGGGACA	-0.105 ± 0.054
AGTTACAT	0.00137 ± 0.016
ATATCACA	0.368 ± 0.0087
AAACGTAA	-0.0985 ± 0.035
AGATGGTA	0.00457 ± 0.0074
CACGGGTA	0.00409 ± 0.011
CAAGGGAC	-0.0692 ± 0.03
AGCGTCTG	-0.0652 ± 0.022
TATTCAGA	-0.339 ± 0.0077
ATCGTTCC	-0.105 ± 0.018
ACCCTTAG	0.013 ± 0.091
CAGTAAGG	-0.0221 ± 0.052
CTTAGCGC	0.284 ± 0.0041
AGAACGAC	-0.0459 ± 0.035
AAACGAAT	0.0595 ± 0.0096
GGACCGCC	-0.18 ± 0.035
ACCGTGCT	0.0549 ± 0.059
